Target: human C3 (human, UniProt P01024 23-667; P01024 in part)
Experiment: SPR (Biacore 2000); Z-ABD immobilised (70 RU), analyte injected

UniProt P01024, sequence (P01024 23-667 limits assumed, chain 1 of 2): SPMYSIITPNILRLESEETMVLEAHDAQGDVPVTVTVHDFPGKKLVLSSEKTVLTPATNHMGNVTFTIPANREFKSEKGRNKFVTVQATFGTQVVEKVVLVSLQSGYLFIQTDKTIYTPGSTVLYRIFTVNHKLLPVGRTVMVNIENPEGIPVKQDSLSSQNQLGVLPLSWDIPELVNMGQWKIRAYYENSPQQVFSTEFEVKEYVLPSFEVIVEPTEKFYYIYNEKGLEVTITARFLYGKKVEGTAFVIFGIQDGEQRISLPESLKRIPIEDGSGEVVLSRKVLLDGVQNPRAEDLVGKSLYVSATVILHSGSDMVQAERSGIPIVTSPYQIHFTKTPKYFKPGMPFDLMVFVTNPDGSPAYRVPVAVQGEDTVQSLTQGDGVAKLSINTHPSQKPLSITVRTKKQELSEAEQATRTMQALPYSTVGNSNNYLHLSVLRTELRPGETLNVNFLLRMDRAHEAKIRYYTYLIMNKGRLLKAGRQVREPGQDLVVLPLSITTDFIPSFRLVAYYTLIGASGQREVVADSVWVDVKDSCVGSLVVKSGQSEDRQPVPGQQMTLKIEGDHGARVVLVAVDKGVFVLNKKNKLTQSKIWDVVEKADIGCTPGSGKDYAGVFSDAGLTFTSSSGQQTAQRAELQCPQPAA
UniProt P01024, sequence (P01024 672-1663 limits assumed, chain 2 of 2): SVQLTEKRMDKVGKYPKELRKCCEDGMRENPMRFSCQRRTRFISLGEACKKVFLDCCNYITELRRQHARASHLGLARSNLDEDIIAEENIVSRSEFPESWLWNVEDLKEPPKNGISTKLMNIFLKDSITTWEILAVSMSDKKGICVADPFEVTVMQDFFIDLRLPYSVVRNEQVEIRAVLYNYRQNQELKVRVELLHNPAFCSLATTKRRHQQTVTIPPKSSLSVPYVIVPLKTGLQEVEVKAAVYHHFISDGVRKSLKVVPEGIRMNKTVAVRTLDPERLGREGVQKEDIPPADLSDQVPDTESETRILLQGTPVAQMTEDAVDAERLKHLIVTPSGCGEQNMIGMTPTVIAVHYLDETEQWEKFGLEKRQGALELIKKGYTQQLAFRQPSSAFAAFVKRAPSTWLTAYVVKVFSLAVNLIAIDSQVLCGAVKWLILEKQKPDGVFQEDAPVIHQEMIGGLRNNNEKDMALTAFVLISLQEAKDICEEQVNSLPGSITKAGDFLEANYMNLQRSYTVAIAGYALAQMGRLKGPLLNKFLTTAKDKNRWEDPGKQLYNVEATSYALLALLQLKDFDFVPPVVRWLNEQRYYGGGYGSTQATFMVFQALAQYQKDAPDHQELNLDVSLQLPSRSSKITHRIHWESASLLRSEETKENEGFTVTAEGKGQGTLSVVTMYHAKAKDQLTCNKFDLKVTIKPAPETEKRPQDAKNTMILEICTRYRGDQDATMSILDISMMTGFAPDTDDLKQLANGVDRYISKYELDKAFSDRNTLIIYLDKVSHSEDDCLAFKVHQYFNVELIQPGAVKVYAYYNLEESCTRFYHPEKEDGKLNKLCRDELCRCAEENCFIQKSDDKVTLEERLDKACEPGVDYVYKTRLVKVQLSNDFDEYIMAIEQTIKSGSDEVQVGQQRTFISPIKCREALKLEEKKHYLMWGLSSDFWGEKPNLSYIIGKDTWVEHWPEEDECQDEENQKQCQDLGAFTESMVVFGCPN

B1: Z06009a (SEQ ID NO:748) fused to ABD094 (SEQ ID NO:759) by a GS linker (designed binder)
chain: AEAKYAKEVLEAWDEIDRLPNLTLDQWLAFINKLDDDPSQSSELLSEAKKLNDSQAPKVDGSLAEAKEAANAELDSYGVSDFYKRLIDKAKTVEGVEALKDAILAALP
notes: also called Z-ABD variant
- binding result: no binding (tested: 400 nM)

— patent US20190167760A1 (SWEDISH ORPHAN BIOVITRUM AB PUBL, published 2019)
